# Test results: PubChem BioAssay AID938 (National Center for Advancing Translational Sciences (NCATS), 2007)
# “And” between values parts separate entries of the source, which are not always exact repeats. Equal entries are not always repeated. Among all 73,000 compounds or so, about 1,800 (2.5%) were called active. Inconclusive results, whose numbers are uncertain, are shown with a selection of clear calls. Calls come from the whole dose curve; as a rule, active = well fitted activation curve with a large enough effect; inconclusive = small, poorly fitted or top-dose-only effect; inactive = no such curve, though single readings can be large or run the other way. No potency is given beside an inconclusive call; the fits are too rough.
# Experiment: qHTS Assay for Agonists of the Thyroid Stimulating Hormone Receptor: Activators of Intracellular cAMP Concentrations in Parental HEK 293; note: nearly all actives have a fitted effect of over 55% in size; for activation: % of control where 0% means no effect
# Details: parental HEK293 CNG cAMP sensor, membrane potential fluorescence; activation: at 57.1 µM (top of the series) unless noted
# Summary of the method: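 Parental HEK 293 cells stably expressing a modified CNG channel (no TSHR) report cAMP rise as membrane depolarization. Membrane potential dye with 100 uM RO 20-1724 was loaded for 60 min at room temperature, then compound added for 30 min; fluorescence read at 590 nm.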
# Potency is the fitted concentration of half-maximal effect; tags give direction and shape of the fitted curve.
SMILES,Potency,activation
CC(=O)N1CCC2(CC1)CN(C(=O)Nc1cccc(C#N)c1)C2,"inconclusive [activator, single point]",–
COc1ncc2nc(-c3ccc(Cl)cc3)c(=O)n(C[C@H]3CCCO3)c2n1,"inconclusive [activator, partial curve]",–
COc1cccc(-c2cc(NCc3cccs3)ncn2)c1,"inconclusive [activator, single point]",–
COC(=O)c1cc(S(=O)(=O)N2CCC(C)CC2)ccc1F,"inconclusive [activator, single point]",–
O=C1CC(c2ccco2)Cc2nc(N3CCN(Cc4ccc5c(c4)OCO5)CC3)ncc21 (configuration not stated),"inconclusive [activator, partial curve]",–
CN1CCN(c2ncc3nc(-c4ccccc4)c(=O)n(-c4ccccc4)c3n2)CC1,inactive,–
O=C(c1ccccc1)c1ccc(C(=O)N2CCN(c3ccc(F)cc3)CC2)o1,"inconclusive [activator, partial curve]",–
CCOC(=O)c1ccccc1NS(=O)(=O)c1ccccc1F,"inconclusive [activator, single point]",–
Cc1ccc(CNC(=O)c2sccc2-n2cccc2)cc1,"inconclusive [activator, single point]",–
COc1cc2c(cc1O)CC[C@@H]1[C@@H]2CC[C@@]2(C)[C@H](O)CC[C@H]12,"inconclusive [activator, single point]",–
COCCCn1c(SCC(=O)OC2CCCCC2)nnc1-c1cccs1,"inconclusive [activator, partial curve]",–
CCC(COC(=O)Nc1cccc(C)c1)NC(=O)OCC(C)C (configuration not stated),"inconclusive [activator, single point]",–
O=C(Nc1ccon1)c1cc(-c2ccccc2)nc2ccccc12,"inconclusive [activator, single point]",–
COCCCNc1nc(=S)[nH]c2cc(OC)c(OC)cc12,"inconclusive [activator, single point]",–
CC(C)c1ccc2oc(-c3ccc(NC(=O)c4ncn[nH]4)cc3)nc2c1,inactive,–
CC(C)c1cccc2cc3c(nc12)-c1cccc(=O)n1C3,"inconclusive [activator, partial curve]",–
COc1ccc(-c2nnc(SCC(=O)N(Cc3ccccc3)C(C)(C)C)o2)cc1OC,active: 31.6 µM,–
Cc1cccc2c(=O)c(C(=O)N3CCCCCC3)c[nH]c12,inactive,–
Cc1c(C)n(C(=O)CN2CCN(c3ccccn3)CC2)c2ccccc12,"inconclusive [activator, single point]",–
Cc1cc(C)nc(N2CCN(c3nnnn3-c3ccccc3)CC2)n1,"inconclusive [activator, partial curve, poor fit]",–
COCCNc1nc(C)nc2c1nc(-c1ccccc1)n2CCN1CCCCC1,"inconclusive [activator, partial curve]",–

SMILES,Potency,activation
CCNc1ncc2nc(-c3cccs3)c(=O)n(CCc3ccccc3)c2n1,"inconclusive [activator, full curve, poor fit]",–
CCCCCCN(C(=O)CCCCCN1C(=O)NC(C2CCCCC2)C(C(=O)OCc2ccccc2)=C1C)C(C(=O)NCCCC)c1ccc(OCC(=O)OC)c(C(=O)OC)c1 (configuration not stated),"inconclusive [activator, partial curve]",–
Cc1occc1-c1nnc(SCCCC(=O)c2ccc(F)cc2)n1C,"inconclusive [activator, partial curve]",–
COc1cccc(-c2ccc3ncnc(NCc4ccccc4)c3c2)c1,"inconclusive [activator, partial curve]",–
COc1ccc(OC2C(O)COC2/C=C/C#Cc2ccc(F)cc2F)cc1 (configuration not stated),–,inactive: 1.6% [at 11.4 µM] and inactive: 14.6% [at 11.4 µM]
CC1=CC(=C2C(=O)c3ccccc3C2=O)C=C(C)N1C,inactive,–
Cc1ccc(Nc2nc(N)nc(CN3CCN(Cc4ccc5c(c4)OCO5)CC3)n2)cc1Cl,inactive,–
Cc1oc2nc(SCC(=O)NC3CCCCC3)nc(N)c2c1C,inactive,–
CCn1c(=O)c2c(nc3n2CC(C)CN3CCc2ccccc2)n(C)c1=O (configuration not stated),inactive,–
COc1ccc(/C=N/n2cnnc2SCc2ccc(OC)cc2)cc1,"inconclusive [activator, single point]",–
Cc1cc2cc(CN(Cc3ccco3)C(=O)NCc3ccccc3)c(=O)[nH]c2cc1C,"inconclusive [activator, single point]",–
Cc1cc2oc(=O)cc(CN3CCC(C)CC3)c2c(C)c1Cl,"inconclusive [activator, partial curve]",–
COC(=O)[C@@]1(Cc2ccccc2)[C@H]2c3cc(C(=O)N4CCCC4)n(Cc4ccc(OC)c(OC)c4)c3C[C@H]2CN1C(=O)c1ccccc1,active: 3.16 µM,–
CCC(c1nnnn1C(C)(C)CC)N(CCCO)Cc1cc2cc(C)cc(C)c2[nH]c1=O (configuration not stated),"inconclusive [activator, partial curve]",–
O=C(O)CCSc1nnc(-c2ccc3c(c2)OCO3)o1,inactive,–
CCOC(=O)c1c(C)c(C(=O)Nc2ccccc2)c(C)n1CC,"inconclusive [activator, partial curve]",–
CCC(C)Nc1nc2c(c(=O)[nH]c(=O)n2C)n1CCC(C)C (configuration not stated),"inconclusive [activator, single point]",–
CC(C)(C)OC(=O)N1CCC[C@H]1c1nnc(SCc2c(F)cccc2Cl)o1,"inconclusive [activator, single point]",–
CC1Cc2ccccc2N1C(=O)CSc1nc2c(c(=O)n(C)c(=O)n2C)n1Cc1ccccc1 (configuration not stated),"inconclusive [activator, partial curve]",–
CNS(=O)(=O)c1cc(O)c2c(S(=O)(=O)NC)cccc2c1,"inconclusive [activator, single point]",–
COC(=O)c1cc(OC)c(OC)c(OC)c1N,inactive,–
